This is one part of the list.
B1: chr7:95294748:95294849:+|3pUTR|ENSG00000158528|msi1|total|mutant (ssRNA)
RNA: GGGAGUUCUACAGUCCGACGAUCGAGAAAGCCGACAGAAUCAGCUUCUCCUGGAAAGUGAAAGCAUCAAGUUCUAUUUAUGGCCGACAGAGGGUCCUUAUUUGCUUGUCCGUGGUGUCUAUGUGGGCCUAUUGAGGGAAUGGUCAACAGAGGAUUGAGCAUCA
B2: chr1:156672197:156672316:-|CDS|ENSG00000132688|unk|total|mutant (ssRNA)
RNA: GGGAGUUCUACAGUCCGACGAUCGACAUUGCAAUCCCUGCAAAAGGAGAAUCAAGAACUAAUGAAAUCUCUUGAAGGUAAUCCCGAGACAUUUUUAUUUCCAGGAACGGAAAAUCAAGAAUCCGUAAGUUCUCUGCAAGAGAACAACAGAGGAUUGAGCAUCA
B3: chr21:14371318:14371404:-|3pUTR|ENSG00000155304|msi1_unk|FALSE|overlapping (ssRNA)
RNA: GGGAGUUCUACAGUCCGACGAUCUAUGAAUAACAAUCUGAAGUCUUUUCAUAAAAAAAAUUAAUAAACUUUAGUUGUACAUUUAGCCAGUGUUAUUUGAAGUAUGUAACUUUUAAAAUAUUAAGUGUCUUGUAUGAUUAGAAUCAACAGAGGAUUGAGCAUCA
B4: ENSG00000136451:be:win_3401|3pUTR|ENSG00000136451|bound_else_gene|NA|bound_elsewhere_windowed (ssRNA)
RNA: GGGAGUUCUACAGUCCGACGAUCAUGUAAACAUGCCCUAUGUUUGUGCCUUUUAAUUAGUUUGUCUCAAUAAACAAAAUGUAGAGAAAAAUAUGUAGCUAUGACUUUGUUACAACUGUUCUUAUCCACAGUACAAAAAUGGUUCAACAGAGGAUUGAGCAUCA
B5: chr16:74621626:74621727:-|3pUTR|ENSG00000168411|msi1|FALSE|unique (ssRNA)
RNA: GGGAGUUCUACAGUCCGACGAUCCAUCUCAAAAAAAACAAACAAACAAAAAAAAACCCUGAUGCCAUUCCCAGUCCCCGUUGUAGGACAUCACAUUUAUAAAUCCAGGCUUUAGUCUUCUGGGCUCCACCAGUCUCUGCCCCACAACAGAGGAUUGAGCAUCA
B6: chr9:122916526:122916627:-|3pUTR|ENSG00000171448|unk|FALSE|unique (ssRNA)
RNA: GGGAGUUCUACAGUCCGACGAUCAUGCUUCCUAGCAUUGUGAUUUUUACAUGAUCCAGCCAAAGAGUACCAAUUCUAUGCAAUAGUGAGACUCUACCCUGUCAACCAAACAGCAUUUUUUGGUAUUUUCUGUCAACAUCAUUUCAACAGAGGAUUGAGCAUCA
B7: chr4:41699229:41699330:+|3pUTR|ENSG00000064042|msi1|total|mutant (ssRNA)
RNA: GGGAGUUCUACAGUCCGACGAUCGAUUACAUGAAUAUUGCACAUUCCCUUCUGGUUUCACAAACCCAUUUAUACAUAUUUCUCCGUGAGGCUCAUUGUACAUGUAUUGAAGCCCGAAUCGAGUCAAGAAAAAUAAAGCCCCAUCAACAGAGGAUUGAGCAUCA
B8: chr2:152649661:152649762:+|3pUTR|ENSG00000157827|msi1|total|mutant (ssRNA)
RNA: GGGAGUUCUACAGUCCGACGAUCCUACAAACCGACAACGUUGGCAUGUUCUUUUCUGUUUGUCUAUUAAUGGGCCUGCUUCUCCGCAAUAUCCGAAUGUUUUAUAAAAGCAAUUCAUGUUACUUUUCUGGUCUUUUCAUGGCACAACAGAGGAUUGAGCAUCA
B9: chr7:88202242:88202358:+|3pUTR|ENSG00000008277|unk|total|mutant (ssRNA)
RNA: GGGAGUUCUACAGUCCGACGAUCUCAGGACCGAUAAGCAUGUACUCCUUUUUUAACUUGCUGGAAGACUUGCCCCUCCAAACCCGCACCCCCAAAAGACAACUUCUUUCAGAAACGGGGUGUUUUACCUAAACACCGCCGCUUCAACAGAGGAUUGAGCAUCA
B10: chr16:14672609:14672749:-|CDS|ENSG00000069764|control|control|control (ssRNA)
RNA: GGGAGUUCUACAGUCCGACGAUCGGCAGAGAACAAAUGCCAAGAACUGUUGUGCAAGUGUGACCAGGAGAUUGCUAACUGCUUAGCCCAAACUGAGUACAACUUAAAGUACCUCUUCUACCCCCAGUUCCUAUGUGAGCCGGACAACAGAGGAUUGAGCAUCA
B11: chr12:54238554:54238587:-|3pUTR|ENSG00000094916|msi1_unk|total|mutant (ssRNA)
RNA: GGGAGUUCUACAGUCCGACGAUCGGGAGCACCCAUUUUAAACCUGGAGAGAACCAUGAUGUUUUCUUCUUCAAAUAACAAUCCCGUUUUUUUUCCCCCAGUACUAAAAUUGUAUUGUCUUUCAGACAAUAUAAUUUUUAUUUACAACAGAGGAUUGAGCAUCA
B12: chr6:117694021:117694122:+|CDS|ENSG00000153989|msi1|FALSE|unique (ssRNA)
RNA: GGGAGUUCUACAGUCCGACGAUCGCUGUCUCCGGAAGAUGGAAAAGCAGAUAUUGUAAGAGCUGCUCAGGACUUUUGCCAGUUAGUAGCCCAGAAGCAAAAGAGACCCACAGAUUUGGAUGUAGAUACGUUAGCCAGUUUACUCAACAGAGGAUUGAGCAUCA
B13: ENSG00000198589:be:win_9601|3pUTR|ENSG00000198589|bound_else_gene|NA|bound_elsewhere_windowed (ssRNA)
RNA: GGGAGUUCUACAGUCCGACGAUCUAAAUUCUUUGUAUGUUGUGAACUUUGAUCUCUAUUUCUCUUGCAACAGACUUCAAGUGGUCCCUCUUUUUUUCCUACACACUCAGCUCUUCUCUAAAAGCAAGGAUUUGGAAUGAACAACAACAGAGGAUUGAGCAUCA
B14: chr6:41028375:41028595:-|CDS|ENSG00000124602|control|control|control (ssRNA)
RNA: GGGAGUUCUACAGUCCGACGAUCUGAGGAGCAGAACGGCAGCCUGCAGGAGCUGCACUACCUCAUGACCGUCAUGGAGCGGCUAGACUGCGCCUCCGCCAUCCAGAACUACCUGAGUGGGACACACGGCGGCAGCCCAGGCCCCAACAGAGGAUUGAGCAUCA

Each binder was assayed against MSI1 full-length (mouse, UniProt Q61474 1-362) (assay: nsRBNS (natural sequence RNA bind-n-seq); RBNS binding buffer (assumed for nsRBNS): 25 mM Tris pH 7.5, 150 mM KCl, 3 mM MgCl2, 0.01% Triton X-100, 500 ug/ml BSA, 20 U/ml SUPERase-In, 4 C; UNK is unkempt and MSI1 is Musashi-1; names of the RNAs are library labels; protein concentration not given here; high values mean tight binding).
Chain of UniProt Q61474 (Q61474 whole entry): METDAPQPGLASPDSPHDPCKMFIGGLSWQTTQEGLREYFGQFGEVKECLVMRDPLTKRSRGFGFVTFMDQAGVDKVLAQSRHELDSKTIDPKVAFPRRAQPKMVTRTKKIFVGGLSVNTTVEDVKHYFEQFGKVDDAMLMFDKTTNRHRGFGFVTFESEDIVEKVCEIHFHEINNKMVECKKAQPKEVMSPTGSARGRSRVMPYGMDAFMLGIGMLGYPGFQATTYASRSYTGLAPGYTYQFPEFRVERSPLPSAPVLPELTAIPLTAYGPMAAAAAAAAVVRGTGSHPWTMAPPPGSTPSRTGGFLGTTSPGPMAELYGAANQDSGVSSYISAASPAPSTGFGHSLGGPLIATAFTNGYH

| Binder | binding signal [enrichment R] |
| --- | --- |
| B1 | 0.433 |
| B2 | 0.111 |
| B3 | 6.15 |
| B4 | 7.89 |
| B5 | 1.24 |
| B6 | 0.315 |
| B7 | 0.741 |
| B8 | 0.417 |
| B9 | 0.41 |
| B10 | 0.418 |
| B11 | 0.474 |
| B12 | 17.5 |
| B13 | 0.416 |
| B14 | 0.404 |

Source: publication PMC12136788
